Assay results published in the supplement of paper PMC12217912.
The other results are listed elsewhere or left out. Sequences were assembled here from the parent chain. Inactive controls read about 0.05.

B1: TEV protease; numbered along this chain (parent)
chain: MGESLFKGPRDYNPISSSICHLTNESDGHTTSLYGIGFGPFIITNKHLFRRNNGTLVVQSLHGVFKVKDTTTLQQHLVDGRDMIIIRMPKDFPPFPQKLKFREPQREERICLVTTNFQTKSMSSMVSDTSCTFPSGDGIFWKHWIQTKDGQCGSPLVSTRDGFIVGIHSASNFTNTNNYFTSVPKNFMELLTNQEAQQWVSGWRLNADSVLWGGHKVFMVKPEEPFQPVKEATQL

Variants of: B1
Test: raw area under fraction-flipped curve 0-4 h after induction (AUC4h, not background-subtracted), DNA-recorder readout of cleavage of the substrate (dimensionless); higher = more cleavage of the substrate by the protease variant
Settings: temperature: 34 °C; time window: 0-4 h after rhamnose induction
Procedure: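 In vivo DNA recorder in E. coli TOP10(DE3) ΔrhaA at 34 °C. Each TEVp single-site mutant (parent TEVp 0) is paired with a single-site variant of the 7-mer TEVs (canonical ENLYFQ|S). The substrate sits between flexible linkers in a Bxb1-sfGFP-TEVs-SsrA fusion, so cleavage stabilises Bxb1 and speeds flipping of a recombination array, read by NGS. The value is the raw area under the fraction-flipped curve over 0-4 h after rhamnose induction (AUC4h), with ≥20 reads per time point. It is not background-subtracted; inactive controls average about 0.047.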
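Further: Bxb1 expression induced with 0.2% (w/v) L-rhamnose at OD600 near 0.5, cultures sampled hourly, flipped fraction per protease–substrate barcode pair counted by paired-end Illumina sequencing.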

Variant	area with substrate ENLYAQS	area with substrate ENLYCQS	area with substrate ENLYDQS	area with substrate ENLYEQS	area with substrate ENLYHQS	area with substrate ENLYIQS	area with substrate ENLYKQS	area with substrate ENLYMQS	area with substrate ENLYNQS	area with substrate ENLYPQS	area with substrate ENLYSQS	area with substrate ENLYTQS	area with substrate ENLYVQS	area with substrate ENLYYQS	area with substrate ENLYGQS	area with substrate ENLYLQS	area with substrate ENLYQQS	area with substrate ENLYRQS	area with substrate ENLYWQS
T132M	0.0744	0.122	0.0578	0.0727	0.0757	0.125	0.0539	0.0936	0.0735	0.0693	0.0597	0.084	0.0888	0.0641					
S123W	0.0815	0.094	0.0699	0.0691	0.0654	0.141	0.0364	0.089	0.0749	0.0732	0.067	0.104	0.109	0.0571	0.0492	0.12	0.0651	0.0504	0.0826
I110V	0.0759	0.0807	0.0578	0.0738	0.0625	0.121	0.0771	0.0854	0.0739	0.0816	0.0782	0.0914	0.106		0.0856	0.0783		0.0636	0.0974
I145T	0.0585		0.0558	0.0662	0.0634	0.149	0.0465	0.0622	0.0749	0.0673	0.0792	0.0752	0.13	0.0349	0.0661	0.0872	0.0625	0.0491	0.0769
L156N	0.0557	0.0608	0.0606	0.0494	0.0552	0.0489	0.049	0.0367	0.0523	0.0627	0.057	0.0543	0.0483	0.0451	0.0531		0.0583		0.0462
R160C	0.0803		0.0551	0.0792	0.0574	0.128	0.0572	0.098	0.0782	0.0495	0.0597	0.084	0.159			0.0573	0.11		0.0902
H168T	0.0655	0.0805	0.0653	0.062	0.0592	0.0563		0.0616	0.0556	0.0644	0.0557	0.0581	0.0617		0.0611				0.0552
H168P	0.0598		0.0283	0.0602	0.0534		0.0607	0.0401	0.058	0.049	0.0192	0.0539				0.0603		0.0644	
D161Q	0.0321	0.0676	0.0505	0.0558	0.0518	0.0584	0.0532	0.0572	0.0472		0.0499	0.063	0.0645		0.0596		0.0546	0.0588	
P134C	0.0662		0.0501	0.0676	0.0646	0.0926		0.076	0.0658	0.0544	0.0684	0.061	0.0955	0.0507	0.0409	0.0792	0.0402		0.0744
P134T	0.0379		0.0617	0.0574	0.077			0.057	0.0683	0.0563			0.0924	0.0662	0.0988	0.0636		0.0402	
P134Y	0.0658	0.0772	0.0504	0.0604	0.0643	0.0856	0.0611	0.058	0.0468	0.0608	0.0697			0.085	0.0769	0.0701	0.0637	0.0554	0.0623
T176H	0.0594		0.0604		0.0597			0.0559	0.0572	0.0668					0.0592		0.075	0.0733	0.0663
T176P	0.0639		0.0511	0.0633	0.067	0.0642	0.0669	0.0615	0.0642			0.0547	0.0495		0.0684	0.063	0.0581	0.0468	
T176E	0.0695		0.0529	0.0648	0.0637	0.0597	0.0578	0.0814		0.079			0.1	0.0508	0.0522			0.0598	0.148
C152T	0.0537		0.0542	0.0572	0.0561	0.0538		0.057	0.0596	0.0636	0.0535		0.0553		0.0664				
N172C	0.0651		0.0664			0.064			0.0734	0.0654			0.0765			0.0835	0.0538		
T115M	0.062		0.0694	0.0727	0.0658	0.132	0.0562	0.106	0.0524	0.0871	0.0692	0.108			0.0624				0.0825
V157G	0.0523		0.0545	0.0558		0.0478			0.0448	0.0566	0.0077				0.0531		0.0294	0.0568	
S121Q	0.0687		0.0828	0.0781	0.0709	0.132	0.0387	0.0779	0.0655		0.0403		0.131	0.0727	0.0625	0.102	0.0713		0.0848
T174A	0.065		0.0564	0.0563	0.0657	0.126				0.102									0.0617
W144D	0.0852		0.0694		0.0637		0.0714	0.0915	0.0678	0.0727	0.0639				0.0661		0.0703	0.0334	0.0716
W144F	0.0774			0.0698	0.0756		0.0218	0.0755			0.0715			0.0636	0.0673				
W144A	0.0574			0.12	0.0782	0.139	0.0709	0.112	0.0683	0.0613	0.0877	0.0728	0.188	0.0647		0.064	0.0939	0.0623	
K120C	0.0687	0.0865	0.0615	0.0715	0.0723	0.0903	0.0614	0.0887	0.0744					0.0859	0.0708				0.0721
K120A	0.0696		0.0687	0.0735	0.0644	0.128	0.0591	0.0931	0.0656			0.129	0.0864	0.0499	0.0551		0.029	0.0663	0.0811
